Data on 26 molecules can be found in the antibiotic and cytotoxicity screens of Wong et al. (2023).

SMILES strings stand for the structures. Some of the results follow.

Test [1] relates to HSkMC (human skeletal muscle cells). Nature of the test: cytotoxicity call (relative viability < 0.9). As to conditions: 10 µM.
In test [2] the test system is HepG2. The experiment in a line: cytotoxicity call (relative viability < 0.9). Particulars: 10 µM.
The test system of test [3] is S. aureus RN4220. Nature of the test: growth inhibition call (relative growth <= 0.2). Particulars: 50 µM.

In the case of `COc1ccc(CN(C)C[C@H]2Oc3ccc(NC(=O)CCN4CCOCC4)cc3C(=O)N([C@@H](C)CO)C[C@H]2C)cc1`, the cytotoxicity call in test [1] and in test [2] was “inactive” throughout. In test [3], the growth inhibition call is “inactive”.

Turning to `Cc1cccc(NC(=O)CN2C(=O)CNC2=O)c1`, the cytotoxicity call in test [1] and in test [2] was “inactive” throughout. Besides, the growth inhibition call in test [3] was “inactive”.

Consider `C[C@H]1CN([C@@H](C)CO)S(=O)(=O)c2ccc(-c3cccnc3)cc2O[C@@H]1CN(C)CC1CCOCC1`, for which the cytotoxicity call in test [1] and in test [2] was “inactive” each time. The growth inhibition call in test [3] was “inactive”.

Take `C[C@@H]1CCCCO[C@@H](CN(C)C(=O)C2CCCCC2)[C@@H](C)CN([C@H](C)CO)C(=O)c2cc(NC(=O)CCCCCC(=O)Nc3ccccc3N)ccc2O1`: the cytotoxicity call in test [1] and in test [2] was “inactive” each time. Also, the growth inhibition call in test [3] is “inactive”.

As to `COc1cccc(S(=O)(=O)N2C[C@@H](O)COC[C@H]3O[C@H](CC(=O)N4CCN(C)CC4)CC[C@@H]32)c1`, the cytotoxicity call in test [1] and in test [2] was “inactive” each time. The growth inhibition call in test [3] is “inactive”.

Consider `C[C@@H]1CN([C@@H](C)CO)C(=O)CCCn2cc(nn2)CO[C@H]1CN(C)S(=O)(=O)c1ccc(Cl)cc1`, for which the cytotoxicity call in test [1] and in test [2] was “inactive” in each case. The growth inhibition call in test [3] is “inactive”.

On to `COc1ccc(S(=O)(=O)N(C)C[C@@H]2Oc3ccc(NS(=O)(=O)c4cccs4)cc3C(=O)N([C@H](C)CO)C[C@H]2C)cc1`, for which the cytotoxicity call in test [1] and in test [2] was “inactive” throughout. In addition, in test [3], the growth inhibition call was “inactive”.

On to `C[C@@H]1CCCCO[C@@H](CN(C)C(=O)C2CCCCC2)[C@H](C)CN([C@@H](C)CO)C(=O)c2cc(NC(=O)Nc3ccc(F)cc3)ccc2O1`, for which the cytotoxicity call in test [1] and in test [2] was “inactive” in each case. Besides, in test [3], the growth inhibition call is “inactive”.

In the case of `Cc1cc(C(=O)Nc2cccc3c2O[C@H](CN(C)C(=O)NC2CCCCC2)[C@H](C)CN([C@@H](C)CO)C3=O)n(C)n1`, the cytotoxicity call in test [1] and in test [2] was “inactive” throughout. Besides, the growth inhibition call in test [3] was “inactive”.

For the molecule `Cc1noc(C)c1S(=O)(=O)N(C)C[C@H]1OCCCC[C@H](C)Oc2ccc(N(C)C)cc2C(=O)N([C@H](C)CO)C[C@@H]1C`, the cytotoxicity call in test [1] and in test [2] was “inactive” in each case. Besides, the growth inhibition call in test [3] was “inactive”.

For the molecule `N/N=C(\C(=O)O)c1ccccc1N`, the cytotoxicity call in test [1] and in test [2] was “inactive” throughout. Also, the growth inhibition call in test [3] was “inactive”.

With `C[C@@H]1CN([C@@H](C)CO)C(=O)c2cccc(NC(=O)Nc3ccc(C(F)(F)F)cc3)c2O[C@@H]1CN(C)Cc1ccncc1`, the cytotoxicity call in test [1] and in test [2] was “inactive” in each case. Moreover, the growth inhibition call in test [3] is “inactive”.

For the molecule `C[C@@H]1CN([C@@H](C)CO)S(=O)(=O)c2ccc(C#C[C@@H](C)O)cc2O[C@H]1CN(C)C(=O)c1ccccc1`, the cytotoxicity call in test [1] and in test [2] was “inactive” each time. Also, the growth inhibition call in test [3] was “inactive”.

As to `C[C@@H]1CCCCO[C@H](CN(C)Cc2ccccc2)[C@H](C)CN([C@@H](C)CO)C(=O)c2cc(NC(=O)C3CCCCC3)ccc2O1`, the cytotoxicity call in test [1] and in test [2] was “inactive” each time. The growth inhibition call in test [3] was “inactive”.

On to `COc1cccc(NC(=O)N(C)C[C@H]2Oc3cc(C#CC4(O)CCCC4)ccc3S(=O)(=O)N([C@@H](C)CO)C[C@@H]2C)c1`, for which the cytotoxicity call in test [1] and in test [2] was “inactive” each time. In test [3], the growth inhibition call was “inactive”.

In the case of `C[C@H]1CN([C@@H](C)CO)C(=O)c2cccc(NC(=O)Nc3ccc(C(F)(F)F)cc3)c2O[C@H]1CN(C)Cc1ccccc1`, the cytotoxicity call in test [1] and in test [2] was “inactive” each time. Further, the growth inhibition call in test [3] was “inactive”.

Turning to `O=C(C[C@@H]1C=C[C@@H](NC(=O)CN2CCOCC2)[C@H](CO)O1)NCCc1ccncc1`, the cytotoxicity call in test [1] and in test [2] was “inactive” throughout. Moreover, in test [3], the growth inhibition call was “inactive”.

On to `OCC1(CO)COC(COc2ccccc2)=N1`, for which the cytotoxicity call in test [1] and in test [2] was “inactive” throughout. Also, the growth inhibition call in test [3] was “inactive”.

Consider `COc1cc(C=CC(=O)C=C(O)C=Cc2ccc(O)c(OC)c2)ccc1O`, for which the cytotoxicity call in test [1] is “inactive”. Further, the cytotoxicity call in test [2] is “active”. In test [3], the growth inhibition call was “inactive”.

Regarding `Cc1ccc(S(=O)(=O)Nc2cccc3c2O[C@H](CN(C)Cc2ccc(C(F)(F)F)cc2)[C@@H](C)CN([C@@H](C)CO)C3=O)cc1`, the cytotoxicity call in test [1] and in test [2] was “inactive” each time. Also, the growth inhibition call in test [3] is “inactive”.

`O=C(C[C@H]1CC[C@@H]2[C@H](COC[C@H](O)CN2C(=O)c2cccnc2)O1)NCC1CC1`: the cytotoxicity call in test [1] and in test [2] was “inactive” throughout. Also, the growth inhibition call in test [3] was “inactive”.

In the case of `C[C@@H]1CN([C@H](C)CO)C(=O)c2cccc(NC(=O)NC3CCCCC3)c2O[C@H]1CN(C)S(=O)(=O)c1cn(C)cn1`, the cytotoxicity call in test [1] and in test [2] was “inactive” throughout. The growth inhibition call in test [3] was “inactive”.

Regarding `CCC[C@@H](O)C#Cc1cnc2c(c1)C(=O)N([C@H](C)CO)C[C@H](C)[C@H](CN(C)S(=O)(=O)c1ccc(C)cc1)O2`, the cytotoxicity call in test [1] and in test [2] was “inactive” each time. Further, in test [3], the growth inhibition call was “inactive”.

For the molecule `C[C@H]1CN([C@@H](C)CO)S(=O)(=O)c2ccc(-c3cncnc3)cc2O[C@H]1CN(C)C(=O)CN(C)C`, the cytotoxicity call in test [1] and in test [2] was “inactive” throughout. The growth inhibition call in test [3] is “inactive”.

Turning to `C[C@@H]1CN([C@H](C)CO)C(=O)Cc2cc(NC(=O)Cc3ccccc3)ccc2O[C@H]1CN(C)Cc1ccc(Oc2ccccc2)cc1`, the cytotoxicity call in test [1] and in test [2] was “inactive” throughout. The growth inhibition call in test [3] was “inactive”.

Take `CN1C[C@@H](O)COC[C@H]2O[C@H](CC(=O)N3CCN(c4ccccc4)CC3)CC[C@@H]21`: the cytotoxicity call in test [1] and in test [2] was “inactive” throughout. Also, in test [3], the growth inhibition call is “inactive”.
